# From publication PMC10726135
# Some of the results follow. At the low end of the ranking, values are background and their order means little. Measured with an extract: partners may take part in the binding.
# Target: T1, HNF4alpha8 (COS-7 nuclear extract) (UniProt P41235-5)
# T1 sequence: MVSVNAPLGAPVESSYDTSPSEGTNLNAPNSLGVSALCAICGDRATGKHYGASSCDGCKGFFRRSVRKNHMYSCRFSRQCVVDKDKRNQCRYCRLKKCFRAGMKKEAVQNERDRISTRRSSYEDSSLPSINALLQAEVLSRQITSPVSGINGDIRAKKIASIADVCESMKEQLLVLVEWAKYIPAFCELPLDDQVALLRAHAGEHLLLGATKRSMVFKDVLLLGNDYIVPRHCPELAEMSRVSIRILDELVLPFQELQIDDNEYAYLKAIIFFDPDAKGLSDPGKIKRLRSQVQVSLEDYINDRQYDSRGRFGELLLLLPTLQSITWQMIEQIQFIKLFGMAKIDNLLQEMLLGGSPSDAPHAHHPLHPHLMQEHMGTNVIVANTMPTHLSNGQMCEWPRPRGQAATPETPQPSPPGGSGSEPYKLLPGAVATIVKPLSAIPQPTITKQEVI
# Experiment: protein-binding microarray
# Conditions: COS-7 nuclear extract on double-stranded Agilent 4x180k PBM; binding buffer, salt, pH and temperature not given; high values mean tight binding; double strand, one strand shown; sequences stand for … in …GCCTAGGGAGATTAGAGTATCGGTCGA
row,Sequence,binding signal (log2 normalized intensity)
1,CTGAATCCAAAGGTCAATGCCAGGACCCTG,5.08
2,GGAGTTTCCTGCCTGGTCCGCCCTTCCCCG,2.16
3,GAACTGACAAGCAGTGACCAAGGGTCAGTT,4.44
4,GGGGCGGGGGTTGCAAGTCTGAGGCTGCTC,-1.31
5,ATCCCCAGCCACGCTCCTCTTATCATTAGA,0.793
6,AGCCGGCCTCTTAACAGATGAGGACATTTC,-1.21
7,TCTGGACTTGGATCAGCCTGATTGAGTTCA,0.925
8,TTCACTAGACCTAGATAAGGGAGATGAAAG,-1.35
9,TGCTCTCTCATGCCCTTTGCCTCCCTGCAT,3.97
10,GGGGAAAGTCCACGTGAGAGGGTCGTGATC,1.92
11,TAGGGGGATTCTGGCTAAACCAGCCTAACA,-1.17
12,AACACAGAACTAGCCAGACCTGTTCCTCTG,-1.18
13,CTAGGGGAAACTGCTTTGGTTAATCATTAG,-0.655
14,TTCAGATGCAACACAGGGGGAGGAATGCTG,-1.33
15,GGAAATCATCAGCACATTGGTGAGAATGGA,0.391
16,CCACTCAGTCTCTTGAAATCCCAAGCAGTG,-1.22
17,TCCGCATCCTCAAGAAACACAGAACTATCA,-1.29
18,GGCTGGAGAGGAGGTTATCTCGGGGCTGGC,-1.13
19,GAAGTTCTAGGAGCCTGGACATTTGCCACC,0.908
20,GGTTAATTCACATCTCCAGTTCCAAAGTCC,6.39
21,GACCTTTGGACAGGGTGACGTCATTGGAAA,6.22
22,GCAGAGGGAGGACAAAGTTCTGTCCTTTGT,3.16
23,ACAGAAGCCAGAGGCAGCAAGGTCAAAGTG,1.66
24,TCCACTGGACAGCAGCTACATAAGGGTAGA,-1.26
25,CGGTGTGAGTGGTCCTTATCAGCATGGGTC,1.89

row,Sequence,binding signal (log2 normalized intensity)
1,ATTGGAATGAGCCTCCTGAAGATCCCCTGT,2.69
2,AAGACATGAAAAGTGGAATGCGCTTTCATG,-1.3
3,GGCTTGAGCAGCTGGTGGAGGCGGTGCCAT,-1.28
4,GTCTGAGATATCTTTCTCTATAGTAATCTT,0.627
5,CCCATCACTACTCCAGGGAGAAACCTGCCA,-1.38
6,GGCATTCTGACCTTTGTCTCCAGGCAAACT,5.6
7,GGAAGCTGGGCAGGCGCCGACTGCCAGGAG,-1.35
8,ATGTTGGGCAACTACCTCAAAGTTTTGTTA,-0.292
9,CTCAGCACATGGCAGTGTACACTAGCCAAA,-1.42
10,CTAATAAATGATTCATTCAGCAAATATTGA,0.0735
11,GCTGTGCCGAGCCTGCAGGTGAATGGAAAC,-1.32
12,GGGTCTAGGTTGGAGGAGCTGAACTGTAAC,0.936
13,TGCTCTGGACATACCTCTAATCATAAAGCT,-1.3
14,TGGTAGGATTGTTTGGGGATTACACTAGAT,-0.85
15,TCCACAGTGCACATTCCAGAGAAATAGTGA,-1.03
16,CCTTCCCTCTGTCTTCAAAACCACACCCCT,4.26
17,TGGACCTCATTAATAGGGCAAGAGCTCAGA,-1.25
18,CTGGAGCAAAGGTCACTCTTGCTATGCCTT,5.81
19,AAGGTGTCAGGACCTTTCTTTATGGACCTT,4.53
20,CTAGTACTCCTGCCCCTGTGCAATACTTTC,2.52
21,TTGCACTGCTGGTTTTTGTCAAAGATAGTT,0.717
22,TCAGCTGCCTAGAGGCCTGGGAATGCCTAG,-1.01
23,TATCAGGCAGGATATTCCAAAAGGGCAGCA,1.16
24,TTTCCATCGCCCTTATCAGAAGGAAAGTCT,0.629
25,CGAAGATAACCTACTTAAAAAGAAATAGCC,-1.29

row,Sequence,binding signal (log2 normalized intensity)
1,GGTGGATACTTTGACTGAGACTGCCTCAAA,-1.36
2,CAGCTTCCCCACTTATTACCGGTGTGACTT,1.44
3,TCAGGCCGTGGTGTATGATGACGCCACGCC,-1.31
4,ACGCTGCTAATCCTACTTTATCTAAGTAAA,-1.31
5,ACTATTTACTTAATCCCTTGGAATGTCCTT,1.68
6,AAAAGAGAGAGAATGTCCTCCCTGAGTCAG,-1.31
7,TGTATGTGGCAGGCACTTAGCAAATATTTA,-1.29
8,CCCCTCTCTACTGGTAAGCAAATATTTGAA,2.3
9,GGTGTTCCTCAGCCTTGAATTGGCATGAGA,-0.394
10,GTTCAAATTCCAGCTTCCCCACTTATTACC,2.24
11,GAGGGGCAGGCTTAGCTGGGCTAGCACCTG,-1.32
12,AGGAGAAAGACCCTAAACCTGTTGGGTCAG,-0.00485
13,TTTGATCAAAGGTCAGCTCTCCTTTGTCTT,4.53
14,TATTCAGAGTTAGCTAAGCTTCACTGACAT,-1.33
15,GAGAAGTGATAAATTGGCCAAAGGTGAAGG,1.25
16,ATAAGCCTGAATTCTGGAAGGACTGTCTTT,0.343
17,AACTGCTATTGGTTGTCAGACTGGTGTAGT,1.45
18,CGATAACCCTCTGGGGCCGGGAGCAGGGAG,-1.33
19,AACAATGTTATCTTTTCAAGGATGTTTATA,1.28
20,AAGCCACGGGCTATTTGGACTAGGCAAAAG,0.967
21,GCACAAGAGGGCAGTATTTGCTTACAGTCT,-1.32
22,TCACCCAGAAAAGGCTGTAAACTCACTCTG,-1.31
23,TTATTTAAATTTCTTGAGGCATTTATTACA,0.229
24,AGTCAAAAACCAGTTATTTCAGTTATTTAC,-0.641
25,ATGACTCATAAAGAACAGTTATTCTTAGCT,-1.33

row,Sequence,binding signal (log2 normalized intensity)
1,AATTACCTGGACTCTAGAGCCAGACTAGTA,2.01
2,ATACTCAGAGCCGCACCCAGCTTTCATCTC,-1.33
3,GGCAGTCGTGATAGTGACCACCTGGTGGAC,1.42
4,GGGAGAGTGAGTGAGTGTGTGTGTGTAAAA,2.24
5,TGTTTTCAATGACTACCTGTTACCCACCTG,1.25
6,TGTGCTGCCCCCGATAGCACTATTAGTCTT,3.06
7,ACTGCGTCCAGCCACAATTAATGTACCCCC,4.54
8,TAACCAGGGGTGGGGACCTTTGGGCTCTGA,3.03
9,GTGGTATTTGCTCTGTCATCAACGTATCTG,1.14
10,CTTTGATCTTCTTACCCCTTTGCTGATTAC,2.81
11,GCTGCAGCTGGGCTATACAATTCCAGCAAG,-1.39
12,ATACGTTTAACAGTTCCTCCTGGAATCTGG,0.971
13,TCCGTTAACAGCGGCATTCCTGTCAAAATC,-1.35
14,CAGCCTAACAGGATTTTTGCTGAAGACAGG,-1.18
15,CCATCGAATTCTTGTCCAACTCCCCTCCCA,4.02
16,AACAAATTGAGAAAGATTAAGAGGCTACAA,-1.38
17,TGGGGCCAAAAAATTCCAGGCACAGTTACT,-1.49
18,TGAATTTTATCACTCCATCAAGGGGATTAG,-1.37
19,TGGTACTATGACCTTTCACCTTTTAGCTTG,6.25
20,CCTGCCTCTCCTCTGAGCTTCATCCTGACC,1.7
21,TGTGTTCTTGTTTGCTAAGTGAGAACACCG,-0.817
22,CTTAAGAACGCTTGTGATTACACTGGGCTC,-0.302
23,GCTGTTAAATGGAGTGGAATTTGGAGAGAA,0.124
24,GGTTCTCAGCTGACATTGGTGGAATCTGAA,1.27
25,AAGAGATTTCCTGCAGGTGGTGACCCCAGA,5.07

row,Sequence,binding signal (log2 normalized intensity)
1,GTGTAATGGTTAGCACTCTGGACTCTGAAT,3.85
2,CTGGGACTTGCCTTTGTCCATTCACTTCCC,0.321
3,CAGTAGTATTACCTGCATCTGCCCAGCAGA,-1.3
4,GCAAACCTACCTGAACTTTGCCCCAGAGGA,6.74
5,CGAAATGTGGGTGAGGCTGTGATGTTTGCC,0.899
6,TTAATACTTTGGAACTCAGTTAATGTACAG,1.59
7,TGTTTCTTGTCCAGGGACTTTGAACACTTC,5.32
8,GATGACATCATCTGTTTGTACGCGTCGAAC,-0.313
9,CTTTCCGTTAGGCTACAGTGGTAACCACAG,-1.38
10,TGCAATGCATGCTGCCAAACTGCCCAGCAG,-1.36
11,TGTTTGGATTGGGCAATGACCTGGACAGGT,2.14
12,GACAGGAACATCTGATTTCCCCGTCCCAAG,2.88
13,AAGGTCACTAATTGGAAGCTCTTTCCCTCC,0.732
14,GGCTGTATGTACACTTGCCCTCTCACCAGA,2.25
15,AAAATACAGCTGGGAAAAGGCGCATGCATA,-1.32
16,GTTTGCATTTTAACCTTTGGCTGGTAGAGC,4.17
17,CACAGGCAACAGAGGAGCATGGACTTCTGA,2.36
18,CTGTCCCTTCTTGGCAAGTTAATGTGGCCT,2.12
19,GAGACCTCTAGACTCCAGCTAAAGCCTGCT,-1.26
20,ACATTAATCAGTCGCGTATCTGACTTTATC,0.606
21,TCACTGGGAGAGAAAGCTAATTTAATAAAC,-1.33
22,TCCTCTTATCTTCAGGTTTGCTAATATCTG,0.818
23,GTAAAATGGACATAGTAACAACCTAAATCA,-1.27
24,TCCACTAACTTGAGTGTGCACCCTGGTCTC,2.03
25,AGAATAAATATTTGGTGAATAAACAAATAA,-0.867

row,Sequence,binding signal (log2 normalized intensity)
1,GCCAACCTTGGGTCTACATGGAAGCCCAGA,-1.16
2,GCAGACATTTAGGCAAACATAAACTCAGAG,-1.19
3,CACCAACAGGATTGTGAAACGTTTGAATTC,-0.491
4,AGCCAGTGAACCTTTGTCCCGTTATGGCAC,3.48
5,AGCAGAGCACGATGAATAGGGACGTTCTAC,-1.31
6,ACAACACTCAGGATACCTAAGCCCCATGCT,0.357
7,GCAGTTCCTGATCTTTGACCTGGAGCATGA,5.34
8,ACTCTAACTGGCTTTAAGAGGAATGCTTTG,-0.731
9,AGGGAAGGCTGCCGTCCTCAGTGAATCACA,-1.3
10,TCCTGCCAAACCAGTTCAACAAGAATTCCC,-1.25
11,AGTCTCAAAGGTCAGATGACAGAATTGGTC,4.15
12,CTTCAGGATGAAGGCTGCTGCCTGAAAGGC,-1.29
13,GTTTTGGCCAACAGAGGGGTCAGAGGCCAG,3.37
14,TCAAACAGTCTAAAAACCATAGACATTCCT,-1.35
15,CAAACTGCCCAGCAGAAAAGCTGTACCAAT,-1.35
16,GGGAGGTTATCTTGGGGCTGATGTCTTTCT,1.4
17,AGGTTTTGAGGGAAGTGAACCAATCTTGAG,-0.233
18,CAGTTCAGGCCATCACACTCCTACCCATTC,-1.31
19,TAATCAAAGAGAAAAACATTGCATACTCAG,-1.36
20,ACAGAGATCAGAATCATAAAGCAGGGAGAG,-1.25
